Results as given in PMC4336329 (PLoS ONE, 2015).
In all, about 310,000 compounds went through this assay and about 2,200 (0.71%) showed an effect of 50% or more. Effects have a minus sign here. This is one part of the list.

biological target: human ether-à-go-go-related gene (hERG) potassium channel (human, UniProt Q12809); assay: primary screen, population patch clamp on CHO cells stably expressing hERG
Sequence (Q12809 whole entry, looked up): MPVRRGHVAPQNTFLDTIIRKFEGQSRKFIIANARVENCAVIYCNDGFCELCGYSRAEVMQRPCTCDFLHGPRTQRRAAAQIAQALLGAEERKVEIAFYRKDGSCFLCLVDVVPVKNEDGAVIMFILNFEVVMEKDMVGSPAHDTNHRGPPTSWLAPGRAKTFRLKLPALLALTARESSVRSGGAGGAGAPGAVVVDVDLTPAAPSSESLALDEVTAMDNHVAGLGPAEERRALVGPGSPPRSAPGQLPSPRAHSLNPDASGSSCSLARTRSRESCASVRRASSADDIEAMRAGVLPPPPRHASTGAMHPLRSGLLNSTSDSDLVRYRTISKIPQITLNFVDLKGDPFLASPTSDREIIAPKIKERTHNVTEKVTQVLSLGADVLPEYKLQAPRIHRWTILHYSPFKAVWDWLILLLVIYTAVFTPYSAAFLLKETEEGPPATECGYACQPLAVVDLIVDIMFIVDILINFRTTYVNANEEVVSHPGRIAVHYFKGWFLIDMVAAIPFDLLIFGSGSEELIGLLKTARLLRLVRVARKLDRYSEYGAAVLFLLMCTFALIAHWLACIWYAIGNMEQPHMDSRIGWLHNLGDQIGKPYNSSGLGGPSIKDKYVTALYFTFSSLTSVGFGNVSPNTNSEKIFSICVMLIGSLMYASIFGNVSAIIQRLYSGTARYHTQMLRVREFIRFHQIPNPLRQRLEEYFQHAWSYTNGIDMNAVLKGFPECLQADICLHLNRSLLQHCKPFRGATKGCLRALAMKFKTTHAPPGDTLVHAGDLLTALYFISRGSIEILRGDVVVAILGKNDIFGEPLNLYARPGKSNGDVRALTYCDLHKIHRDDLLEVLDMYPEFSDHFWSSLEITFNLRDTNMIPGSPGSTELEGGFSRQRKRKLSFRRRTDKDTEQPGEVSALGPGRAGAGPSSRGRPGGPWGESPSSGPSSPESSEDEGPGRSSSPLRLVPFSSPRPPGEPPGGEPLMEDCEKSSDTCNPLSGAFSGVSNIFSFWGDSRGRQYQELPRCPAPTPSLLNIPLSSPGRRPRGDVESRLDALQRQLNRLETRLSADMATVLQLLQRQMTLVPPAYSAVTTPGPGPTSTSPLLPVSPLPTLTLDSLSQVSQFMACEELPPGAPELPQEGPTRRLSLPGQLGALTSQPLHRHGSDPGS

SMILES	hERG current change (%, negative = inhibition) at 1uM
CCCc1c(C(=O)N/N=C/c2ccc(OCc3ccccc3)c(OC)c2)nnn1-c1nonc1N	20.7%
CCn1c(SCC(=O)NNC(=S)Nc2ccc(C)cc2)nnc1-c1ccc(Cl)cc1	10%
CCc1ccccc1NC(=O)CN(C)S(=O)(=O)c1ccc(-c2ccc(=O)[nH]n2)s1	-31.5%
O=C(Nn1cnc2ccccc2c1=O)c1ccc([N+](=O)[O-])cc1Cl	12.3%
Cc1cc(C)c(CN2CCC(n3nccc3NC(=O)C3CCCC3)CC2)cc1C	-26.4%
CN(C)c1ncc([N+](=O)[O-])cc1C(F)(F)F	16.9%
COc1ccccc1-c1nc2ccc(Cl)cc2c(=O)n1O	6.14%
CCOc1ccccc1N(CC)C(=O)c1ccc2c(=O)n3c(nc2c1)CCCCC3	7.02%
NC(=O)Nc1ccc(C(=O)OCC(=O)N(Cc2ccccc2)C2CCS(=O)(=O)C2)cc1 (stereo not drawn)	23.8%
Nc1[nH]nc2nc(NCc3ccccc3)c3c(c12)CCN(Cc1ccccc1)C3	4.08%
CCC(C)CCCCCCCCCCC(=O)O (stereo not drawn)	24.1%
C=C(C)COc1ccc2c(CC)cc(=O)oc2c1	13.1%
CSc1cccc(NC(=S)N(CCCN2CCCC(C)C2)Cc2cccs2)c1 (stereo not drawn)	-24%
CC(C)(C)c1ccc(C(=O)N2CCN(Cc3ccccc3)CC2)cc1	11%
CCOc1ccc(S(=O)(=O)Nc2ccc(C(=O)N3CCCC3)cc2)cc1	8.52%
Cc1nn(Cc2cccc(C(=O)NN)c2)c(C)c1Cl	12.9%
CCCS(=O)(=O)N1CCc2ccc(NC(=O)C3CCCO3)cc2C1 (stereo not drawn)	0.153%
Cc1cc(C(=O)Nc2ccc(C(=O)O)cc2)c(-c2ccccc2)o1	-3.53%
CCCCc1ccccc1NC(=S)NC1CCCC1	14.6%
Cc1nn2c(SCC(=O)c3cccs3)cc(C(C)(C)C)nc2c1-c1ccccc1	12.7%
CC1CN(S(=O)(=O)c2cccc(C(=O)N=c3sccn3C)c2)CC(C)O1 (stereo not drawn)	9.18%
Cc1ccc(-n2nccc2-c2nn(-c3cccc(C(F)(F)F)c3)c(=O)n(C)c2=O)cc1	14.4%
COc1cc(/C=N/NC(=O)C(=O)NCc2cccnc2)ccc1O	1.29%
Cn1c(=O)c2sccc2n2c(CCCC(=O)N3CCN(c4ccccn4)CC3)nnc12	14%
